# This is one part of the list. Many values rest on one well or one pass, so single values are uncertain.
# Tested on: RVH-421
# Test: cell count relative to DMSO control; melanoma cells; higher = more viable cells
# Conditions: library dose: standard library concentration; 72 h
# 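Note: cells treated in 1,536-well plates, then fixed and DAPI-stained, with nuclei counted from automated high-throughput microscope images.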
row,Structure (SMILES),cell count
1,"CS(=O)(=O)c1ccc(C(=O)Nc2ccc(Cl)c(-c3ccccn3)c2)c(Cl)c1 [vismodegib] + COCC[n+]1c2c(n(Cc3cnccn3)c1C)C(=O)c1ccccc1C2=O [YM155] (first compound 5 µM, partner dose 0.002 µM)",99.8%
2,"CCCS(=O)(=O)Nc1ccc(F)c(C(=O)c2c[nH]c3ncc(Cl)cc23)c1F + CC(=O)c1c(C)c2cnc(Nc3ccc(N4CCNCC4)cn3)nc2n(C2CCCC2)c1=O [palbociclib] (first compound 0.4 µM, partner dose 0.2 µM)",62.4%
3,"C=C(c1ccc(C(=O)O)cc1)c1cc2c(cc1C)C(C)(C)CCC2(C)C [Bexarotene] + O=C(O)C(=O)Nc1sc2c(c1C(=O)O)CCNC2 [TCS401] (first compound 10 µM, partner dose 8.33333 µM)",77.4%
4,"CCCS(=O)(=O)Nc1ccc(F)c(C(=O)c2c[nH]c3ncc(Cl)cc23)c1F + Nc1nc(F)nc2c1ncn2[C@@H]1O[C@H](CO)[C@@H](O)[C@@H]1O [fludarabine] (first compound 0.4 µM, partner dose 1 µM)",97.5%
5,"NC1(c2ccc(-c3nc4ccn5c(=O)[nH]nc5c4cc3-c3ccccc3)cc2)CCC1 + COc1ccc2c(c1)CCC1C2CCC2(C)C(NCCCCCCN3C(=O)C=CC3=O)CCC12 [U73122] (first compound 2 µM, partner dose 2 µM)",101%
6,"CS(=O)(=O)c1ccc(C(=O)Nc2ccc(Cl)c(-c3ccccn3)c2)c(Cl)c1 [vismodegib] + COc1cc(N2CCC(N3CCN(C)CC3)CC2)ccc1Nc1ncc(Cl)c(Nc2ccccc2S(=O)(=O)C(C)C)n1 [NVP-TAE684] (first compound 5 µM, partner dose 0.4 µM)",111%
7,"C=C(c1ccc(C(=O)O)cc1)c1cc2c(cc1C)C(C)(C)CCC2(C)C [Bexarotene] + O=c1cc(-c2cccc3c2Sc2ccccc2S3)oc(N2CCOCC2)c1 [KU55933] (first compound 10 µM, partner dose 5 µM)",137%
8,"CS(=O)(=O)c1ccc(C(=O)Nc2ccc(Cl)c(-c3ccccn3)c2)c(Cl)c1 [vismodegib] + OCc1c[nH]c2ccccc12 [Indole-3-carbinol] (first compound 5 µM, partner dose 4 µM)",162%
9,"CN(c1ncccc1CNc1nc(Nc2ccc3c(c2)CC(=O)N3)ncc1C(F)(F)F)S(C)(=O)=O + CC1(C)NC(=O)N(c2ccc([N+](=O)[O-])c(C(F)(F)F)c2)C1=O [nilutamide] (first compound 0.4 µM, partner dose 5 µM)",65.4%
10,"CS(=O)(=O)c1ccc(C(=O)Nc2ccc(Cl)c(-c3ccccn3)c2)c(Cl)c1 [vismodegib] + NCC(=O)Nc1ccc(-n2nc(C(F)(F)F)cc2-c2ccc3c(ccc4ccccc43)c2)cc1 [OSU03012] (first compound 5 µM, partner dose 5 µM)",86%
11,"CS(=O)(=O)c1ccc(C(=O)Nc2ccc(Cl)c(-c3ccccn3)c2)c(Cl)c1 [vismodegib] + C[C@]1(c2nc3c(C(N)=O)cccc3[nH]2)CCCN1 [Veliparib] (first compound 5 µM, partner dose 7 µM)",88.3%
12,"NC1(c2ccc(-c3nc4ccn5c(=O)[nH]nc5c4cc3-c3ccccc3)cc2)CCC1 + C=CCn1c(=O)c2cnc(Nc3ccc(N4CCN(C)CC4)cc3)nc2n1-c1cccc(C(C)(C)O)n1 [MK1775] (first compound 2 µM, partner dose 0.1 µM)",81.1%

# Source: the supplement of paper PMC4604168 (melanoma cell lines)
